One experiment concerns human PBMC cells. Put plainly: Inhibition by humanized antibodies of IFNα release from human PBMC cells stimulated by CpG-A. It is filed as cell-based. The conditions noted are these: Table 4, humanized antibodies; read-out: EC50, inhibition of release of cytokine IFNα from human PBMC cells stimulated by CpG-A. On the procedure:
A series of humanized candidate antibody molecules were selected and subjected to the function detection of inhibiting the release of the cytokine IFNα from the human PBMC cells stimulated by CpG-A. The cryopreserved human PBMC cells were thawed and incubated in a complete culture medium (1640+10% FBS+1×NEAA+1×L-Glutamine) overnight for 18 h. The next day, the PBMC cells were collected and centrifuged at 600 g for 8 min, and the supernatant was discarded. The cells were resuspended to 8×10^6 cells/mL in a culture medium (1640+10% FBS), and the mixture was added to a 3799 cell culture plate at 100 μL/well. The test antibody was diluted in a 10-fold gradient (0.0001 nM-10 nM, and 0 concentration point was used as a control) with the culture medium (1640+10% FBS), and the diluted antibody was added to the PBMCs at 50 μL/well. The cells were resuspended and then incubated at 37° C. for 6 h. 50 μL of CpG-A (2 μM, Invitrogen, tlrl-2216-5) diluted in the culture medium (1640+10% FBS) was added to each well and mixed, followed by incubation at 37° C. for another 20 h. […]
The antibody MT1/3/5 (Mabtech, 3425-1H-20) was diluted to 4 μg/mL with PBS, and added to a CORNING ELISA plate at 100 μL/well. […] The values at OD450 nm were read on an ELISA plate reader, and curves were fitted using GraphPad Prism6. […]

A further experiment concerns the target T1, recombinant Human BDCA2 (Homo sapiens, UniProt Q8WTT0).
T1 construct: extracellular domain (Asn45-Ile213) of human BDCA2 (hBDCA2); human IgG1 Fc (fused via a linker) (N); made in house; host or cells: 293E
T1 sequence (Q8WTT0 45-213): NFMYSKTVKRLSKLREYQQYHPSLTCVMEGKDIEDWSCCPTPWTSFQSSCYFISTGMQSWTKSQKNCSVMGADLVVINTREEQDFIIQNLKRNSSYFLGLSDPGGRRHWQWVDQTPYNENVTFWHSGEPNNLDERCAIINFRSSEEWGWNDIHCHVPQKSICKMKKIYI
Put plainly: Affinity assay of humanized antibodies by BIAcore (SPR). The note with it: 1:1 binding model. On the procedure:
The humanized antibodies of the present disclosure were assayed for affinity by the BIAcore experiment. The surface of a CM5 chip channel was activated with 50 mM NHS and 200 mM EDC (NHS and EDC from an amino coupling kit) mixed in a ratio of 1:1, and the anti-human IgG (Fc) antibody (diluted with a sodium acetate solution at pH 5.0, the concentration was 25 μg/mL) was injected for 420 s. Then 1 M ethanolamine was injected at a flow rate of 10 μL/min for 420 s to block excess active carboxyl groups on the chip. The humanized antibody was diluted to 1 μg/mL using a running buffer and injected into a detection channel flow cell at a flow rate of 10 μL/min. The sample injection was performed for 60 s for capture. The recombinant Human BDCA2 was diluted to 50 nM or 100 nM with 1× HBS-EP+ (pH 7.4), and diluted in a gradient of 1:2 to 0.39 nM. The test samples hBDCA2 at these concentration gradients were separately injected into the detection channel at a flow rate of 30 μL/min, wherein 2 samples at the concentration of 0 were used for removing background signals. The times for the antibody-antigen binding and dissociation were 180 s and 400 s, respectively. Data analysis was performed using Biacore Insight Evaluation Software (Version 2.0.15.12933). After subtraction of the signals from the reference channel (flow cell 1) and 0 concentration, a 1:1 binding model was selected for curve fitting, and kinetic parameters calculated.

B1: Hu033-03(BM3): humanized anti-BDCA2 IgG1 antibody from mAb033; heavy chain SEQ ID NO: 19, light chain SEQ ID NO: 20 (antibody)
heavy: EVQLVESGGGLVKPGGSLRLSCAASGFTFSSYGMSWVRQAPGKGLEWVSTISSGDSYTYYPDSVKGRFTISRDNAKNSLYLQMNSLRAEDTAVYYCARQIYYDYAYYFDFWGQGTTVTVSS[human IgG1 constant region not spelt out]
light: DIVLTQSPASLAVSPGQRATITCRASESVSFRTSHLMHWYQQKPGQPPKLLIYGASNLESGVPARFSGSGSETDFTLTINPVEAEDTANYFCQQSIEDPPTFGGGTKVEIKRTVAAPSVFIFPPSDEQLKSGTASVVCLLNNFYPREAKVQWKVDNALQSGNSQESVTEQDSKDSTYSLSSTLTLSKADYEKHKVYACEVTHQGLSSPVTKSFNRGEC
For the molecule B1, the EC50 with human PBMC cells amounted to 0.01 nM. For the same molecule, in the experiment with recombinant Human BDCA2, the ka was 576000 M⁻¹ s⁻¹ and the kd was determined as 0.000136 s⁻¹.

B2: Hu033-20(BM3): humanized anti-BDCA2 IgG1 antibody from mAb033; heavy chain SEQ ID NO: 21, light chain SEQ ID NO: 22 (antibody)
heavy: EVQLVESGGGLVKPGGSLRLSCAASGFTFRSYGMSWVRQAPGKRLEWVSTISSGDSYTYYPDSVKGRFTISRDNAKNSLYLQMNSLKAEDTAVYYCARQIYYDYAYYFDFWGQGTTVTVSS[human IgG1 constant region not spelt out]
light: DIVMTQSPDSLAVSLGERATINCRASESVSFRTSHLMHWYQQKPGQPPKLLIYGASNLESGVPDRFSGSGSGTDFTLTISSLQAEDVAVYYCQQSIEDPPTFGGGTKVEIKRTVAAPSVFIFPPSDEQLKSGTASVVCLLNNFYPREAKVQWKVDNALQSGNSQESVTEQDSKDSTYSLSSTLTLSKADYEKHKVYACEVTHQGLSSPVTKSFNRGEC
In the case of B2, in the experiment on human PBMC cells, the EC50 is 0.01 nM. In the experiment with recombinant Human BDCA2, the ka is 556000 M⁻¹ s⁻¹ and the kd was 0.000149 s⁻¹.

By EC50 is commonly meant the midpoint of the concentration-response curve.

The values are drawn from patent US20260216362A1, “ANTI-BDCA2 ANTIBODY-DRUG CONJUGATE AND USE THEREOF” (DUALITY BIOLOGICS (SHANGHAI) CO., LTD., priority 2022, published 2026).
